PubChem BioAssay AID504845 (National Center for Advancing Translational Sciences (NCATS), 2011)
Screen size: about 390,000 compounds; about 150 (0.038%) were called active. Not shown: some 3% with an inconclusive outcome. The call rests on the fitted dose curve; in most records, active means well fitted inhibition curve with a large enough effect; inconclusive means small, poorly fitted or top-dose-only effect; inactive means no such curve, though single readings can be large or run the other way. The list shows a part of the results, in another mix than the full data. Some compounds were tested as several samples or in several runs, with calls that do not always agree.

Each compound was assayed against Regulator of G-protein signaling 4 (Homo sapiens) (UniProt P49798) (assay: Inhibitors of Regulator of G Protein Signaling (RGS) 4: qHTS). Conditions: Transcreener GDP fluorescence polarization, RGS4-accelerated GTP hydrolysis; series mostly up to 114 µM; activity change, negative = inhibition: at the top concentration.
UniProt P49798, sequence (P49798 whole entry, looked up): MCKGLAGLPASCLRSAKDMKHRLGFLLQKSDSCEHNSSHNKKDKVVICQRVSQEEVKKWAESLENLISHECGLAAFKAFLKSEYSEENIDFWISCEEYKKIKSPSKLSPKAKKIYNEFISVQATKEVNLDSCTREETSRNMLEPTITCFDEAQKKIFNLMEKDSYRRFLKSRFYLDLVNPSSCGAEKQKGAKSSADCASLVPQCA
How it was run: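 MLSMR compounds (23 nl, pin-transferred) preincubated 10 min at room temperature with a 500nM (2x) first reagent, then RGS4 at 900nM (2x) plus Transcreener GDP mix added; fluorescence polarization (620/688 nm) read before and after 90 min at 30 °C.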
Further: nearly all actives have a fitted effect of over 75% in size.
On the % scale 0 is the no-effect control and ±100 the full control effect.

Potency, inactive:
CCCC(=O)Nc1ncnc2c1ncn2[C@@H]1O[C@@H]2COP(=O)(O)O[C@H]2[C@H]1OC(=O)CCC
OC(CCN1CCCCC1)(c1ccccc1)C1CCCCC1 (stereo not given)
CC(C)NC[C@H](O)c1ccc(O)c(O)c1
NCCS(=O)O
CN(C)CCCO[C@@H]1[C@H]2OC(C)(C)O[C@H]2O[C@@H]1[C@H](O)CO
CNCCC(Oc1ccccc1OC)c1ccccc1 (stereo not given)
CC1CNCCN1S(=O)(=O)c1cccc2cnccc12 (stereo not given)

Activity change, negative = inhibition, inactive:
CC(C)(C)c1ccc(Oc2ccc(NC(=O)c3ccco3)cn2)cc1 56.5%
COC(=O)C1=C(C)N=C2SC(C#N)=C(N)N2C1c1cc(OC)c(OC)c(OC)c1 (stereo not given) 78.4%
Cc1ccccc1NC(=O)Cn1nnc(C(=O)NCc2ccco2)c1N 12%
CC(=O)c1cccc(-n2c(CCC(=O)O)ccc2-c2ccccc2)c1 -43%
OCCN1CCN(CCCN2c3ccccc3Sc3ccc(Cl)cc32)CC1 -5.74%
CCOC(=O)c1cc(S(=O)(=O)Nc2ccc(F)cc2F)cn1C 66.5%
O=C1/C(=C\c2ccccn2)SC(=S)N1Nc1ncc(C(F)(F)F)cc1Cl -49.1%
O=C(CN(c1ccc(F)cc1)S(=O)(=O)c1ccc2c(c1)OCCO2)NCc1ccncc1 55.9%
CN1CCN(C(=O)C2=C[C@@H](C3CC3)C[C@@H](OCc3ccc(CO)cc3)O2)CC1 9.47%
CS(=O)(=O)Nc1ccc([N+](=O)[O-])cc1OC1CCCCC1 110% [at 56.9 µM]
C#Cc1cccc(Nc2ncnc3cc(OC)c(OC)cc23)c1 170% [at 56.9 µM]
CCC1(O)CC2CN(CCc3c([nH]c4ccccc34)C(C(=O)OC)(c3cc4c(cc3OC)N(C=O)C3C(O)(C(=O)OC)C(OC(C)=O)C5(CC)C=CCN6CCC43C65)C2)C1 (stereo not given) -15.3%
COc1ccc(/C=C(\NC(=O)c2ccccc2)C(=O)NC2CCS(=O)(=O)C2)cc1 (stereo not given) 8.37% [at 11.4 µM]
CCC(C)(C)C(=O)O[C@@H]1C[C@@H](C)C=C2C=C[C@H](C)[C@H](CC[C@@H]3C[C@@H](O)CC(=O)O3)[C@H]21 -139% [at 56.9 µM]
CCOC(=O)[C@@H]1[C@H]2COc3cc(OC)ccc3[C@@H]2N2C(=O)N(c3ccc(C(F)(F)F)cc3)C(=O)[C@]12C 1.44%
O=C(O)/C(=C\c1c(C(=O)O)[nH]c2cc(Cl)cc(Cl)c12)c1ccccc1 -4.87%
O=C(c1cc(-c2ccc(F)cc2)on1)N1CCN(c2ccc(F)cc2)CC1 30.9%
Cc1ccc(-c2cccc(NC(=O)C3C4C=CC(C4)C3C(=O)O)c2)o1 (stereo not given) -25.6%
Clc1ccc(CSc2snnc2-c2ccccc2)c(Cl)c1 55.4%
C[N+](C)(CCOc1ccccc1)Cc1ccccc1 -11.5%
NOCC(=O)O -14.3%
N=C1/C(=C\c2ccc(-c3cccc(C(=O)O)c3)o2)C(=O)N=C2SC=C(c3ccccc3)N12 15.2% [at 11.4 µM]
CCOc1cccc2c1OC1(C)CC2NC(=O)N1Cc1ccccc1 (stereo not given) 61.4%
C[C@@H]1c2ccccc2CN1CC1=NCCN1 159% [at 56.9 µM]
COc1cccc(CNC(=O)CCC2CCCN(C(=O)c3ccoc3)C2)c1 (stereo not given) 56.5%
CC1(C)CN(c2cccc(-c3ccnc4ncnn34)c2)C1=O 54.1%
CNC(=O)Nc1ccccc1C(=O)NCc1ccccc1 63.1%
OCC[C@H]1C[C@@H](O)[C@H](O)[C@@]2(CCc3ccccc3CO2)O1 -1.94%
O=C(CSc1n[nH]c(=O)[nH]c1=O)N/N=C/C=C/c1ccccc1 2.78%
Cc1ccccc1N1C(=O)c2cc(S(N)(=O)=O)c(Cl)cc2NC1C (stereo not given) -5.83%
O=C1C2C=CC=CC2=NC(=S)N1CCN1CCC(=C(c2ccc(F)cc2)c2ccc(F)cc2)CC1 (stereo not given) 16.2% [at 56.9 µM]
CC1CN(S(=O)(=O)c2cccc3cnccc23)CCN1 (stereo not given) 9.54% [at 56.9 µM]
O=C(NCc1ccc(Cl)cc1)C1CCN(S(=O)(=O)c2ccccc2)CC1 25.3%
Nc1ncnc2c1ncn2C1O[C@H](CO)[C@@H](O)[C@@H]1O (stereo not given in full) 22.1%
CN(C)c1ccc(N=C/C=C2\N(C)c3ccccc3C2(C)C)cc1 -16% [at 11.4 µM]
O=C(O)COc1ccc(OCCNC[C@@H](O)COc2ccccc2)cc1 63.4% [at 56.9 µM]
S=C(S)O[C@@H]1C[C@@H]2C[C@H]1[C@@H]1CCC[C@H]21 -161% [at 56.9 µM]
NC(=O)C(c1ncc(C(F)(F)F)cc1Cl)c1c(Cl)cccc1Cl (stereo not given) 55.7%
Cc1ccc(CS(=O)(=O)c2ncc(Cl)c(C(=O)Nc3nnc(C(C)C)s3)n2)cc1 -43%
N#C/C(=C\C1=C(N2CCOCC2)C(=C\c2ccc(Cl)cc2)/CC1)C(=O)Nc1ccccc1F -21.5%
CCOc1ccc(OCCSc2nnnn2C2CCCCC2)cc1 55.9%
OCc1cc(C(O)CNCCCCCCOCCCCc2ccccc2)ccc1O (stereo not given) 18%
CC1CCC(C(C)C)C(OC(=O)Cn2c(-c3ccc(Br)cc3)[n+](C)c3ccccc32)C1 (stereo not given) -16.4%
